# Reference: PubChem BioAssay AID493208 (National Center for Advancing Translational Sciences (NCATS), 2011)
# The whole screen tested about 44,000 compounds, of which about 340 (0.77%) were called active. Another 5% or so got no clear call; they are omitted. The call rests on the fitted dose curve; in most records, active means well fitted inhibition curve with a large enough effect; inconclusive means small, poorly fitted or top-dose-only effect; inactive means flat fitted curve, though single readings scatter. Some of the results follow.
# Experiment: Acumen qHTS Assay for Inhibitors of the mTORC1 Signaling Pathway in MEF (Tsc2-/-, p53-/-) Cells: Sytravon;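 further: plate controls were DMSO for no effect and rapamycin for full effect; nearly all actives have a fitted effect of over 50% in size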
# Conditions: phospho-rpS6 immunofluorescence/PI, 24 h; series mostly up to 38.3 µM; activity change, negative = inhibition: at the top concentration
# Method in brief: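 Read-out: phospho-S6 Alexa-488 intensity over PI intensity per well, scored as % active cells using thresholds from rapamycin (7.5 nM) and DMSO controls. Tsc2-/-, p53-/- MEFs exposed to compound for 24 h; PI cell count recorded as viability.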
row,Structure (SMILES),"activity change, negative = inhibition"
1,COc1ccc(-c2nc(C)c(CCNS(=O)(=O)c3cc(C)c(C)cc3C)s2)cc1,inactive: -2.57%
2,O=C(CCS(=O)(=O)c1cccs1)Nc1ccc(C(=O)Nc2ccccc2F)cc1,inactive: -4.14%
3,CCSc1ncc(Cl)c(C(=O)Nc2ccc(S(=O)(=O)N3CCCCC3)cc2)n1,inactive: 0.439%
4,CCCCN(CCCC)CCNC(=O)c1cn(CC)c2ccc(S(=O)(=O)N(C)C3CCCCC3)cc2c1=O,inactive: -1.52%
5,COc1ccc(Cl)cc1NS(=O)(=O)c1ccc2c(c1)NC(=O)CC(=O)N2,inactive: -0.675%
6,CCOc1ccc(NC(=O)Cn2c(=O)n(-c3cccc(OC)c3)c(=O)c3c4c(sc32)CCCC4)cc1,inactive: -1.85%
7,Cc1ccc(C)c(Cn2cc(S(=O)(=O)c3ccc(Cl)cc3)c(=O)c3cc(F)ccc32)c1,inactive: -1.38%
8,CCc1ccc(NC(=O)c2ccc3[nH]c(C)c(C)c3c2)cc1,inactive: -19.3%
9,CCN(Cc1ccccc1)C(=O)CN(c1ccc(OC)cc1)S(=O)(=O)c1c(C)nn(C)c1C,inactive: -13.1%
10,CCOC(=O)C1CCN(C(=O)Cn2c(=O)oc3cc(S(=O)(=O)N4CCC(C)CC4)ccc32)CC1,inactive: -17.3%
11,CC(=O)N1CCc2c(sc3c2c(=O)n(CCc2ccccc2)c(=O)n3Cc2ccc(Cl)cc2)C1,inactive: -6.53%
12,Cc1ccccc1NC(=O)CSc1nc2c(c(=O)n(C)c(=O)n2C)n1Cc1ccccc1F,inactive: 2.34%
13,CCOCCCNc1ncnc2c1cnn2-c1ccc(C)c(C)c1,inactive: -6.25%
14,COCCNC(=O)Cn1c(=O)n(CCCCCC(=O)NCc2ccc3c(c2)OCO3)c(=O)c2sccc21,inactive: -2.75%
15,COc1ccc(-c2nc(CSc3nncn4c3cc3sccc34)c(C)o2)cc1OC,inactive: 1.29%
16,O=C(CN1C(=O)CCc2cc(S(=O)(=O)N3CCOCC3)ccc21)NCc1ccccc1,inactive: 1.76%
17,CCNc1nc(OC)nc(Oc2ccc(=O)[nH]n2)n1,inactive: 7.38%
18,CCCNC(=O)c1ccc2nc(CCc3ccccc3)oc2c1,inactive: 0.371%
19,Cc1cc(C)cc(S(=O)(=O)c2cn(C)c3cc(N4CCCC4)c(F)cc3c2=O)c1,inactive: -6.83%
20,CCc1ccc(NC(=O)CSC2=Nc3ccccc3C3=NC(CCC(=O)NCc4ccco4)C(=O)N23)cc1 (stereo not given),inactive: -7.62%
21,CCc1ccccc1NC(=O)N(C)CCc1c(C)nn(C)c1C,inactive: -21.7%
22,COc1ccc(C(=O)n2nc(-c3ccco3)nc2NCc2cccs2)cc1OC,inactive: -3.21%
23,Cc1ccc(-c2nc3sc(CCNC(=O)c4ccc(C)c(C)c4)c(C)n3n2)cc1,inactive: 5.73%
24,CC(=O)c1cccc(NC(=O)c2cc(-c3ccc(Cl)s3)nc3ccccc23)c1,inactive: -5.21%

row,Structure (SMILES),"activity change, negative = inhibition"
1,COc1ccc(NC(=O)CC2C(=O)N(c3cccc(C)c3)C(=O)N2C2CCCCC2)cc1 (stereo not given),inactive: 5.49%
2,COc1ccc(-c2nnc(SCC(=O)Nc3ccc(C(C)C)cc3)nc2-c2ccc(OC)c(OC)c2)cc1OC,inactive: -3.8%
3,CC(C)c1ccc(S(=O)(=O)c2nnn3c2nc(N2CCCCC2)c2sccc23)cc1,inactive: 0.377%
4,COc1cccc(C(=O)Nc2ccc(-c3cc(C(F)(F)F)nn3-c3ccccc3)cc2)c1,inactive: 5.25%
5,Cc1ccc(C)c(CN2C(=O)N(c3cc(Cl)ccc3C)S(=O)(=O)c3ccccc32)c1,inactive: -0.638%
6,Cc1ccc(C)c(Cn2c(-c3cccs3)nc3ccccc32)c1,inactive: 2.39%
7,CC(C)Cc1ccc(S(=O)(=O)Nc2cc3c(cc2N2CCOCC2)n(C)c(=O)c(=O)n3C)cc1,inactive: -14%
8,CCOc1ccccc1CNS(=O)(=O)c1ccc2[nH]c(=O)ccc2c1,inactive: 0.995%
9,CN(Cc1ccccc1)S(=O)(=O)c1cc(Br)cc2c1N(C(=O)C1CC1)CC2,inactive: 2.26%
10,CCC(C(=O)Nc1c(C)cc(C)cc1C)n1c(=O)c(-c2ccccc2NC(C)=O)nc2ccccc21 (stereo not given),inactive: -0.473%
11,CCOC(=O)C1CCCN(C(=O)c2cc3c(=O)[nH]c4ccc(C)cc4c3s2)C1 (stereo not given),inactive: -1.16%
12,COc1ccc(NC(=O)CSc2nnc(NC(=O)Nc3ccc(OC)cc3)s2)cc1,inactive: -7.05%
13,CCN(CCCNC(=O)CN1N=C(c2ccc(OC)cc2)CCC1=O)c1cccc(C)c1,inactive: 1.6%
14,CCCCN(C)CCCNC(=O)c1cc(-c2ccc(Br)s2)nc2ccccc12,inactive: -21.7%
15,CCOc1ccc(CCNC(=O)CCCn2nc(C)c3sc4ccccc4c3c2=O)cc1,inactive: 5.04%
16,COc1cccc(Nc2sc(C(=O)c3ccc(F)cc3)c(N)c2C(=O)NCc2ccc(Cl)cc2)c1,inactive: -5.57%
17,Cc1cccc(NC(=O)CCCCCn2c(=O)[nH]c3ccsc3c2=O)c1,inactive: -1.73%
18,Cc1cccc(N2CCN(C(=O)c3cn(CC(C)C)c(=O)c4c3c3ccccc3n4C)CC2)c1C,inactive: 7.57%
19,COc1ccc(-c2ccc(NS(=O)(=O)c3ccc(C(C)=O)cc3)cc2)nn1,inactive: -17.1%
20,COc1cccc(N2CC(NC(=O)CCCc3ccccc3)CC2=O)c1 (stereo not given),inactive: 0.323%
21,Cc1ccc(NS(=O)(=O)c2c(C)[nH]c(=O)[nH]c2=O)c(C)c1,inactive: -2.53%
22,Cc1ccc(-c2noc(CNC(=O)c3ccc(Br)o3)n2)cc1,inactive: -13.7%
23,CCOc1ccccc1CNC(=O)C1CCN(c2nn3cc(-c4ccc(F)cc4)nc3s2)CC1,inactive: 3.08%
24,CCCCCCOc1ccc(C2C(=O)N(C3CCCCC3)CC(=O)N2CCC)cc1 (stereo not given),inactive: 6.27%

row,Structure (SMILES),"activity change, negative = inhibition"
1,Cc1ccccc1-c1nc2cc(NC(=O)Cc3ccc(Cl)cc3)ccc2o1,inactive: 3.14%
2,Cc1cccc(N2CCN(C(=O)c3cccc(-n4c(C)nc5cccnc54)c3)CC2)c1C,inactive: -16.2%
3,CC(C)c1ccc(CN(Cc2ccco2)c2cnc(S(C)(=O)=O)nc2C(=O)Nc2ccc(F)cc2)cc1,inactive: -2.27%
4,Cc1ccc(C(=O)Nc2cc3nn(-c4ccccc4)nc3cc2Cl)c(C)c1,inactive: 3.56%
5,N#C/C(=C\c1ccc(Cl)cc1Cl)c1nc(-c2cccc(Cl)c2)cs1,inactive: -7.37%
6,CCOc1ccccc1N(CC(=O)NCCSc1ccccc1)S(=O)(=O)c1ccccc1,inactive: 10.2%
7,COc1ccccc1Cc1nc2ccccc2nc1SCC(=O)N(C)c1ccc(F)cc1,inactive: 1.23%
8,Cc1cccc(N2CCN(C(=O)Nc3cn(CC(C)C)c(=O)c4ccccc34)CC2)c1C,inactive: -0.561%
9,Cc1nnc(N2CCC(C(=O)NCCc3ccccc3Cl)CC2)c2nn(-c3ccccc3)c(C)c12,inactive: -8.29%
10,CCc1nn(CC(=O)NCCCN(CC(C)C)CC(C)C)c(=O)c2cc3sc(C)cc3n12,inactive: -6.62%
11,CCCCN(C)C(=O)C1CCCN(c2ncnc3onc(C)c23)C1 (stereo not given),inactive: -7.87%
12,COc1ccccc1N1CCN(C(=O)Cn2cnc3onc(-c4ccc(F)cc4)c3c2=O)CC1,inactive: 6.88%
13,Cc1nn(-c2ccccc2)c2c1N(CC(=O)N1CCN(c3cccc(Cl)c3)CC1)C(=O)CS2,inactive: -3.04%
14,O=C(c1ccc2c(=O)n(CCc3ccccc3)c(=O)[nH]c2c1)N1CCN(c2ccc(F)cc2)CC1,inactive: -3.18%
15,CCOc1ccc(C(=O)Nc2cccc(-c3nc4cc(Cl)cc(Cl)c4o3)c2)cc1,inactive: -4.45%
16,COc1cccc(N2CC(NC(=O)c3ccco3)CC2=O)c1 (stereo not given),inactive: -8.04%
17,CCOc1ccc(CNC(=O)c2cc(=O)[nH]c3ccc(S(=O)(=O)N4CCCC4)cc23)cc1,inactive: 7.04%
18,COc1ccc(C(=O)Nc2nc3c(s2)CCCC3)cc1Cl,inactive: -9.12%
19,Cn1c(=O)c2c(-c3ccccc3)n3c(c2n(C)c1=O)C(c1ccco1)Nc1ccccc1-3 (stereo not given),inactive: -7.43%
20,COc1ccc(Cl)cc1CNCCSc1nnnn1C,inactive: -20.3%
21,CCCn1cc(S(=O)(=O)c2ccc(CC)cc2)c(=O)c2cc(F)c(N(CC)CC)cc21,inactive: -6.37%
22,CCOc1cccc(NC(=O)CSc2ncc(-c3ccccc3)[nH]2)c1,inactive: 1.4%
23,Cc1cccc(N2CCN(C(=O)c3ccc4c(c3)N(Cc3cccc(Cl)c3)C(=O)c3ccccc3S4=O)CC2C)c1 (stereo not given),inactive: -7.27%
24,CCOc1cccc2sc(N3CCN(C(=O)C4CC4)CC3)nc12,inactive: 2.84%

row,Structure (SMILES),"activity change, negative = inhibition"
1,Cc1cc(C)cc(NC(=O)CCCn2c3ccccc3c(=O)c3ccccc32)c1,inactive: -23.9%
2,CC(=O)c1ccc(N2CCN(C(=O)CCCCn3c(=O)[nH]c4ccccc4c3=O)CC2)cc1,inactive: -7.33%
3,Cc1ccc(NC(=O)CCC(=O)N2Cc3ccccc3Oc3ncccc32)cc1F,inactive: 2.76%
4,O=C(NCc1ccc(F)cc1)c1ccc2nc(N3CCCCC3)sc2c1,inactive: -0.133%
5,CCOc1ccc(NC(=O)c2ccc3c(c2)CCN3S(=O)(=O)c2ccc(Cl)cc2)cc1,inactive: -13.6%
6,Cc1cccc(Cn2c(=O)n(CCC(=O)NCCc3ccc(Cl)cc3)c(=O)c3sccc32)c1,inactive: -2.31%
7,O=C(NCC(c1ccc2c(c1)OCO2)N1CCOCC1)C(=O)Nc1cccc(Cl)c1 (stereo not given),inactive: -1.39%
8,O=C(O)c1c(CNCc2cccc(F)c2)c2ccccc2n1Cc1ccccc1,inactive: -1.69%
9,Fc1cccc(Cl)c1Cn1c(-c2cccs2)nc2ccccc21,inactive: 0.329%
10,COc1ccc(OC)c(CNC(=O)c2nn(C)c3c2CSc2ccccc2-3)c1,inactive: -3.41%
11,CC(=O)c1ccc(NC(=O)c2cc(S(=O)(=O)N3CCCCCC3)cn2C)cc1,inactive: -4.04%
12,Cc1ccc(NC(=O)CCCc2nnc3n(C)c(=O)c4sccc4n23)cc1F,inactive: 0%
13,COc1ccc(-c2nc3c(c(SCC(=O)Nc4ccccc4F)n2)Cc2cc(C)ccc2O3)cc1,inactive: -3.82%
14,NC(=O)C1(N2CCCCC2)CCN(C(=O)Nc2ccc(F)cc2)CC1,inactive: -10.3%
15,CCc1ccccc1NC(=O)CN1C(=O)c2ccccc2Sc2ncccc21,inactive: -1.63%
16,CCCNC(=O)c1ccc2c(c1)sc1nc(-c3ccc(C)cc3)cn12,inactive: -2.22%
17,Cc1ccc(C)c(N2CCN(C(=O)C3CCCN(Cc4nc(-c5cccc(Cl)c5)oc4C)C3)CC2)c1 (stereo not given),inactive: 0.674%
18,O=C(CNC(=O)c1ccccc1)OCc1cc(=O)n2ccsc2n1,inactive: 1.23%
19,Cc1ccc(N2CC(NC(=O)c3ccc(S(=O)(=O)N4CCCC4)cc3)CC2=O)cc1C (stereo not given),inactive: -4.14%
20,CCn1cc(C(=O)NCCCN2CCCC(C)C2)c(=O)c2cc(S(=O)(=O)N(C)C3CCCCC3)ccc21 (stereo not given),inactive: 0.708%
21,Cc1cc(C)cc(-n2ccn(CC(=O)Nc3cc(C)ccc3C)c(=O)c2=O)c1,inactive: 3.76%
22,COc1ccc(CCNc2nc(-c3ccc(OC)c(OC)c3)cc(C(F)(F)F)n2)cc1OC,inactive: -3.46%
23,Cc1cccc(CS(=O)(=O)Cc2ccc(C(=O)NCCc3ccccc3)o2)c1,inactive: 0%
